Consider one molecule from publication PMC10518940.

The assay has as its target T1, HA-LPA1-Rluc8 (human), Q92633.
T1 chain: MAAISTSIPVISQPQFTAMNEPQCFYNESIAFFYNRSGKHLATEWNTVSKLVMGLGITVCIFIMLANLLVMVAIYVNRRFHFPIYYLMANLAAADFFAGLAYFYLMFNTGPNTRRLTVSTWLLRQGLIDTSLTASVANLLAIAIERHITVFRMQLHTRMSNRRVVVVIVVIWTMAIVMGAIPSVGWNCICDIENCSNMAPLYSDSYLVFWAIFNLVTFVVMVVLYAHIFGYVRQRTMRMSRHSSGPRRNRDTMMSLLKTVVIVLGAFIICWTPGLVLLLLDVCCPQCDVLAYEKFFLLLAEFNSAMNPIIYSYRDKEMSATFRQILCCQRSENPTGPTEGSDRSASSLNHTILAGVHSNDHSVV
The experiment in a line: FRET or BRET; BRET2 saturation in HEK293A cells: fixed amount of GPCR-Rluc8 plasmid, increasing amounts of GPCR-GFP2 plasmid (0 to 390 ng); coelenterazine 400a 5 μM; BRET50 from the net BRET ratio. The following applies: remark: other sources report otherwise.

B1: Flag-LPA1-GFP2, Q92633 1-364 (receptor)
chain: MAAISTSIPVISQPQFTAMNEPQCFYNESIAFFYNRSGKHLATEWNTVSKLVMGLGITVCIFIMLANLLVMVAIYVNRRFHFPIYYLMANLAAADFFAGLAYFYLMFNTGPNTRRLTVSTWLLRQGLIDTSLTASVANLLAIAIERHITVFRMQLHTRMSNRRVVVVIVVIWTMAIVMGAIPSVGWNCICDIENCSNMAPLYSDSYLVFWAIFNLVTFVVMVVLYAHIFGYVRQRTMRMSRHSSGPRRNRDTMMSLLKTVVIVLGAFIICWTPGLVLLLLDVCCPQCDVLAYEKFFLLLAEFNSAMNPIIYSYRDKEMSATFRQILCCQRSENPTGPTEGSDRSASSLNHTILAGVHSNDHSVV
For B1, the BRET50 stood at 0.629.
